Measured values taken from the supplement of paper PMC4967469.
By IC50 is meant the dose at which the fit gives 50% viability; a limit (>, <) means that the fit lies beyond the doses tested. AUC, from the same fit, is the share of area under the viability curve across the 256-fold dose range; it is 1 without any effect and falls as sensitivity rises. For part of these data: The top dose, if marked as inferred, was derived from the fitted curves, not read from the paper. For part of these data: Drugs with an entry number were screened twice under separate entries, and the two screens often disagree.

Experiments:
Assay in all cases: Viability of human cancer cell lines after 72 h of drug (GDSC screen)
QS11 = compound: OC[C@H](Cc1ccccc1)Nc1nc(Oc2ccc3c(c2)CCC3)nc2c1ncn2Cc1ccc(-c2ccccc2)cc1 [QS11]; conditions: top dose 10.24 µM
Description: (§1)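 Human cancer cell lines in 384-well plates, medium with 10% serum, drug for 72 h over a 256-fold dose range (nine 2-fold or five 4-fold steps up to the top dose). Adherent lines were fixed and stained with the nucleic acid dye Syto60, suspension lines read with resazurin; signal relative to control wells, capped at 0 and 100%. One two-parameter sigmoid per drug and line, fitted in a mixed model over all curves with the slope shared within a line.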

5-Fluorouracil = compound: O=c1[nH]cc(F)c(=O)[nH]1 [5-Fluorouracil]; conditions: top dose 32 µM; top dose inferred
Description: as §1

CUDC-101 = compound: C#Cc1cccc(Nc2ncnc3cc(OC)c(OCCCCCCC(=O)NO)cc23)c1 [CUDC-101]; conditions: top dose 5.12 µM; top dose inferred
Description: as §1

OSU-03012 = compound: NCC(=O)Nc1ccc(-n2nc(C(F)(F)F)cc2-c2ccc3c(ccc4ccccc43)c2)cc1 [OSU-03012]; conditions: top dose 16 µM; top dose inferred
Description: as §1

AC220 = compound: CC(C)(C)c1cc(NC(=O)Nc2ccc(-c3cn4c(n3)sc3cc(OCCN5CCOCC5)ccc34)cc2)no1 [AC220]; conditions: top dose 1.024 µM; top dose inferred
Description: as §1

JNK-9L = compound: Fc1cc(-c2ccnc(Nc3ccc(-n4cnc(N5CCOCC5)n4)cc3)n2)cc(N2CCOCC2)c1 [JNK-9L]; conditions: top dose 5.12 µM; top dose inferred
Description: as §1

RDEA119 = compound: COc1cc(F)c(F)c(Nc2ccc(I)cc2F)c1NS(=O)(=O)C1(C[C@H](O)CO)CC1 [RDEA119]; conditions: top dose 5 µM, top dose inferred
Description: as §1

| Cell Line | AUC (QS11) | IC50 (QS11) | AUC (5-Fluorouracil) | IC50 (5-Fluorouracil) | AUC (CUDC-101) | IC50 (CUDC-101) | AUC (OSU-03012) | IC50 (OSU-03012) | AUC (AC220) | IC50 (AC220) | AUC (JNK-9L) | IC50 (JNK-9L) | AUC (RDEA119; screen: GDSC drug entry 1014) | IC50 (RDEA119; screen: GDSC drug entry 1014) | AUC (RDEA119; screen: GDSC drug entry 1526) | IC50 (RDEA119; screen: GDSC drug entry 1526) |
| --- | --- | --- | --- | --- | --- | --- | --- | --- | --- | --- | --- | --- | --- | --- | --- | --- |
| CAL-148 (breast, suspension) | 0.944 | > 10.2 µM | 0.381 | 0.967 µM | 0.398 | 0.172 µM | 0.854 | 11.1 µM | 0.983 | > 1.02 µM | 0.636 | 0.736 µM |  |  |  |  |
| H2804 (mesothelioma, adherent) | 0.982 | > 10.2 µM | 0.962 | > 32 µM | 0.765 | 2.05 µM | 0.818 | 10.2 µM | 0.965 | > 1.02 µM | 0.584 | 0.556 µM |  |  |  |  |
| ONS-76 (medulloblastoma, adherent) | 0.854 | 9.05 µM | 0.852 | 27.9 µM |  |  | 0.643 | 2.57 µM | 0.984 | > 1.02 µM | 0.524 | 0.374 µM | 0.586 | 0.548 µM | 0.438 | 0.208 µM |
| VMRC-RCW (kidney, adherent) | 0.887 | 10.1 µM | 0.966 | > 32 µM | 0.939 | > 5.12 µM | 0.722 | 4.02 µM | 0.988 | > 1.02 µM | 0.533 | 0.391 µM |  |  |  |  |
| EoL-1-cell (haematopoietic neoplasm, suspension) | 0.675 | 1.84 µM | 0.418 | 1.22 µM | 0.223 | 0.0563 µM | 0.602 | 1.83 µM |  |  | 0.513 | 0.347 µM | 0.511 | 0.334 µM | 0.64 | 0.724 µM |
| RS4-11 (leukaemia, suspension) | 0.862 | 7.54 µM | 0.497 | 1.97 µM | 0.249 | 0.0658 µM | 0.728 | 4.15 µM |  |  | 0.522 | 0.365 µM | 0.978 | > 5 µM | 0.988 | > 5 µM |
| COR-L88 (small cell lung carcinoma, adherent) | 0.83 | 8.2 µM | 0.966 | > 32 µM |  |  | 0.951 | > 16 µM | 0.977 | > 1.02 µM | 0.809 | 3.32 µM | 0.976 | > 5 µM | 0.982 | > 5 µM |
| A2058 (melanoma, adherent) | 0.886 | 9.18 µM | 0.988 | > 32 µM | 0.868 | 3.85 µM | 0.584 | 1.66 µM | 0.989 | > 1.02 µM | 0.573 | 0.496 µM |  |  |  |  |
| MOLM-13 (acute myeloid leukaemia, suspension) | 0.827 | 5.71 µM | 0.355 | 0.814 µM | 0.301 | 0.0918 µM | 0.616 | 2.04 µM |  |  | 0.463 | 0.256 µM | 0.826 | 2.78 µM | 0.758 | 1.63 µM |
| YKG-1 (glioma, adherent) | 0.843 | 7.38 µM | 0.918 | > 32 µM |  |  | 0.607 | 1.98 µM | 0.984 | > 1.02 µM | 0.519 | 0.361 µM | 0.659 | 0.873 µM | 0.872 | 4.88 µM |
| SF539 (glioma, adherent) | 0.941 | > 10.2 µM | 0.813 | 15.1 µM |  |  | 0.823 | 8.23 µM | 0.979 | > 1.02 µM | 0.628 | 0.695 µM | 0.783 | 1.89 µM | 0.863 | 3.61 µM |
| OCI-AML3 (acute myeloid leukaemia, suspension) | 0.887 | 8.56 µM | 0.341 | 0.777 µM | 0.379 | 0.156 µM | 0.814 | 7.22 µM |  |  | 0.63 | 0.69 µM | 0.352 | 0.13 µM | 0.245 | 0.0658 µM |
| EB-3 (Burkitt lymphoma, suspension) | 0.962 | > 10.2 µM | 0.904 | > 32 µM |  |  | 0.765 | 6.79 µM | 0.982 | > 1.02 µM | 0.602 | 0.639 µM | 0.984 | > 5 µM | 0.974 | > 5 µM |
| ME-1 (acute myeloid leukaemia, suspension) | 0.989 | > 10.2 µM | 0.955 | > 32 µM | 0.62 | 0.704 µM | 0.764 | 6.21 µM |  |  | 0.7 | 1.22 µM | 0.567 | 0.482 µM | 0.866 | > 5 µM |
| MONO-MAC-6 (acute myeloid leukaemia, suspension) | 0.824 | 6.55 µM | 0.504 | 2.05 µM | 0.42 | 0.191 µM | 0.678 | 3.25 µM |  |  | 0.59 | 0.573 µM | 0.893 | > 5 µM | 0.901 | > 5 µM |
| NOMO-1 (acute myeloid leukaemia, suspension) | 0.923 | > 10.2 µM | 0.376 | 0.864 µM | 0.465 | 0.254 µM | 0.654 | 2.85 µM |  |  | 0.535 | 0.403 µM | 0.242 | 0.0499 µM | 0.244 | 0.0509 µM |
| SNG-M (endometrium, adherent) | 0.814 | 5.44 µM | 0.898 | > 32 µM |  |  | 0.664 | 2.82 µM | 0.983 | > 1.02 µM | 0.509 | 0.338 µM | 0.976 | > 5 µM | 0.767 | 1.82 µM |
| OCI-AML5 (acute myeloid leukaemia, suspension) | 0.791 | 4.17 µM | 0.407 | 1.14 µM | 0.212 | 0.0503 µM | 0.806 | 7.32 µM |  |  | 0.519 | 0.358 µM | 0.564 | 0.46 µM | 0.779 | 1.86 µM |
| KCL-22 (chronic myeloid leukaemia, suspension) | 0.788 | 3.71 µM | 0.603 | 3.64 µM | 0.427 | 0.209 µM | 0.55 | 1.34 µM |  |  | 0.505 | 0.33 µM | 0.803 | 2.02 µM | 0.893 | 4.27 µM |
